Measured values reported in the supplement of paper PMC11417369.
± gives the standard deviation of the averaged measurements. The list shows a part of the results.

tested on: PfAP2-EXP AP2 domain (GST-tagged); test: gcPBM binding intensity (ln(normalized median fluorescence intensity)); higher = stronger DNA binding
Outline: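 Each value is the highest Masliner-normalised natural-log median intensity across replicate spots of either orientation of a probe. The probes were primer-extended double-stranded 36-bp intergenic genomic sequences on an Agilent 4 × 180k array, alongside negative controls, exposed for 1 h to GST-tagged P. falciparum DNA-binding domains expressed in E. coli. Bound protein was picked up with Alexa488 anti-GST antibody and scanned at 488 nm.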

Row | Sequence | gcPBM binding intensity (ln)
1 | AAGTGGTTATAATCAACACACGTGGAATGTACTTTA [CACACA_site3700] | 8.67 ± 0.34
2 | CTACATACAAGAATTAAACACACACTAATTATAAAT [CACACA_site8986] | 8.56 ± 0.54
3 | CCTCAATATTCACATACACACAATATCATCGAAGTA [CACACA_site1676] | 8.8 ± 0.56
4 | AATAAGCATATACAAACATGCATACATATAAATAAA [TGCATGCA_site338] | 8.84 ± 0.47
5 | TTTTTTTTTTTTTTGACACACATAATAAAATACAAA [CACACA_site3080] | 8.29 ± 0.46
6 | GAAACGATTTAATACACACACGTATTATAGATATAT [CACACA_site6666] | 8.56 ± 0.3
7 | TATATATTTGTAACGGGTACGTAGGTGTATATTCCA [XGTACX_site6028] | 8.7 ± 0.38
8 | AGCCACGTGGTATATACACACATAATCAAATAAAAT [CACACA_site9364] | 8.72 ± 0.54
9 | GAAAGAATAAAATTTACACACATATATAAATACATA [CACACA_site5273] | 8.44 ± 0.33
10 | AAATATTTTAACGAGAGTACATAATAACAATTTATG [XGTACX_site3865] | 8.64 ± 0.38
11 | TTTTTTTTTTTTTATTGTACTAAATTATAGAGGGGA [XGTACX_site2609] | 8.45 ± 0.55
12 | AAAAAAAAAAAATACACACACACATATATATATATA [CACACA_site731] | 10.2 ± 0.18
13 | ATAAAACAACACACTTGTACTAATTTTTTTTTTTTT [XGTACX_site8377] | 8.29 ± 0.36
14 | TGAATAAATAGACACACACACATATATAAATATGTA [CACACA_site6159] | 8.46 ± 0.47
15 | TAATTTATAAGGTATAACAACAATTGCATCTATCAC [XGTACX_negctrl_site314] | 8.59 ± 0.49
16 | ATTATCCATGCATTTACACACACACTAAAAAAAATT [CACACA_site7848] | 8.87 ± 0.26
17 | AATTAAATTTATATGAATGTCAATTATATTGTTATA [XGTACX_negctrl_site261] | 8.06 ± 0.3
18 | ATGTATATATATTTGTGTACATATTTAGGAAATAAA [XGTACX_site2904] | 8.62 ± 0.33
19 | TTGAATTAAAAACATACATGCATATATATATATATA [TGCATGCA_site319] | 10.1 ± 0.52

Row | Sequence | gcPBM binding intensity (ln)
20 | AAAAAGTTACATGGTGGTACTCAAATAAAATATTCT [XGTACX_site5993] | 8.34 ± 0.28
21 | TTATAAAATGGGCAAACACACACAAAAAAAAGATAT [CACACA_site8476] | 9.02 ± 0.61
22 | AATAAATTACTATGTACACACATAAGAGTATAAATA [CACACA_site6940] | 8.56 ± 0.32
23 | AATATATCTTTTTACGGCAACCATATTTTTCCCATT [CACACA_negctrl_site963] | 8.88 ± 0.52
24 | TTTTTTTTTTTTTGATGTACATAAATTAAGAATTAT [XGTACX_site7789] | 8.4 ± 0.54
25 | TTTTTTTTAGTATGAACACACATATATATTATAAAA [CACACA_site2935] | 8.35 ± 0.37
26 | TTTATATGTGAAAAAAGTACAAGGAAAAAATTAAAC [XGTACX_site7269] | 9.06 ± 0.35
27 | TATTATGTTATATATTGTACATGTTTATTGAAACAA [XGTACX_site5605] | 8.66 ± 0.21
28 | TATTAACAAAATATAGCACACATAAATATATATTTA [CACACA_site8005] | 8.63 ± 0.23
29 | AATATAATTATATGTGGTACAGAAATAATATAAAAT [XGTACX_site2366] | 8.86 ± 0.3
30 | TTCTTTTTTTTTCTGGGTACATATATTCCAATCACT [XGTACX_site4770] | 8.99 ± 0.39
31 | TTATAAAAGACAAAAGTGCATATATACATATGTATA | 8.48 ± 0.42
32 | TATAACTTTTATAGGTGTACCCAATATTATATATAG [XGTACX_site7673] | 8.46 ± 0.12
33 | TTTATATGTTTTGTATTTTTAATAAATATTTTATTA [TGCATGCA_negctrl_site20] | 8.68 ± 0.31
34 | TATATATAATAAGAAGGTACACGTAAGTAATAATTT [XGTACX_site934] | 9.09 ± 0.49
35 | CCATCTTTTTTACGATGTACAAGTATAAGGTATACG [XGTACX_site2697] | 8.52 ± 0.38
36 | ATATATATATATGTATGTACACATATTTTTTAACTT [XGTACX_site431] | 10.42 ± 0.042
37 | AAATAAATAAATTAACGTACATAATAACATTAATAT [XGTACX_site8567] | 8.46 ± 0.26
38 | TTATATTATAGACACACACACAAAAAAAAAAAAAAA [CACACA_site3816] | 8.19 ± 0.59

Row | Sequence | gcPBM binding intensity (ln)
39 | TGTAAAACCTCCTACACACACCAATTAACTATTCTA [CACACA_site7074] | 8.54 ± 0.44
40 | TATATATATATTATTAGTACTTATTTTTTTTCATAT [XGTACX_site1279] | 9.63 ± 0.3
41 | AAAGAAAAATTAACATGTACAAAAATTACTTGTTCA [XGTACX_site6725] | 8.47 ± 0.38
42 | GTATATAAATATATATATATATATATATCTATATTT [CACACA_negctrl_site871] | 8.29 ± 0.11
43 | GTATTTTTACAAATTTGTACATATATATGAATATAC [XGTACX_site6717] | 9.12 ± 0.44
44 | AAAAAAAATTCACACTGTACAAAAGCATAAATAAAC [XGTACX_site5408] | 9.08 ± 0.4
45 | TCTGAAACAAGAAAAAGTACACAAATTACAAAACTA [XGTACX_site7641] | 8.72 ± 0.33
46 | ATATTTACCTTTGTATGTACATATATAAAATATATC [XGTACX_site6367] | 8.81 ± 0.46
47 | TTTTGTAAAAAGAAAAATTAGAATATATCGTATATA [XGTACX_negctrl_site617] | 8.02 ± 0.43
48 | TTATTTATTTATTCATGTACGTGTATTTTTTAAAAA [XGTACX_site7915] | 8.94 ± 0.43
49 | TATATATATATTATCACACACTCACGTTTGACAAAA [CACACA_site689] | 9.65 ± 0.29
50 | TAATAAATACAAAAATGTACACACATATATATATTT [XGTACX_site7430] | 8.39 ± 0.4
51 | AGTGTCATATTAACACGTACATAATTATTGTAGAGA [XGTACX_site568] | 8.85 ± 0.38
52 | ATTGGGTACAAATACACACACATATATATATTAAGA [CACACA_site5330] | 8.66 ± 0.49
53 | TATTACATACAATATTGTACATATCATATTTTGAAT [XGTACX_site2191] | 8.55 ± 0.3
54 | ACGGAAAAAGAAAAGGTGCATATGGACACAATATAT | 9.35 ± 0.17
55 | ATTATTTGTTTAAATTCACACACGTATATATATTTA [CACACA_site3050] | 8.66 ± 0.42
56 | ACATGTAAATGGAAAAGTACTAATAACTTGTATTGG [XGTACX_site5181] | 8.89 ± 0.25
57 | ATAGAAATATTATATTGTACGAACAGTTATTAACAA [XGTACX_site2137] | 8.77 ± 0.29
